Measurements: the antibiotic and cytotoxicity screens of Wong et al. (2023)
This is one part of the list.

What was measured:
HSkMC = human skeletal muscle cells; assay: cytotoxicity call (relative viability < 0.9); conditions: 10 µM
HepG2 = assay: cytotoxicity call (relative viability < 0.9); conditions: 10 µM
S. aureus RN4220 = assay: growth inhibition call (relative growth <= 0.2); conditions: 50 µM

SMILES | cytotoxicity call (HSkMC) | cytotoxicity call (HepG2) | growth inhibition call (S. aureus RN4220)
CC(C)NC(=O)Nc1ccc2c(c1)C(=O)N([C@H](C)CO)C[C@@H](C)[C@H](CN(C)C(=O)Nc1ccc3c(c1)OCO3)O2 | inactive | inactive | inactive
CN1CC(=O)N(c2cnn(C)c2)C[C@]12CCN(C(=O)c1cnccn1)C2 | inactive | inactive | inactive
C[C@@H]1CCCCO[C@H](CN(C)C(=O)Nc2cccc3ccccc23)[C@@H](C)CN([C@H](C)CO)C(=O)c2cc(NC(=O)Cc3ccccc3)ccc2O1 | inactive | inactive | inactive
Cc1nnc(SCC2=C(C(=O)O)N3C(=O)[C@@H](NC(=O)Cn4cnnn4)[C@H]3SC2)s1 | inactive | inactive | active
COc1ccccc1C#Cc1cnc2c(c1)C(=O)N([C@@H](C)CO)C[C@@H](C)[C@H](CN(C)C(=O)CC1CC1)O2 | inactive | inactive | inactive
CC(C)=CCC1=C(O)C(=O)c2ccccc2C1=O | inactive | inactive | inactive
COc1ccc(C#Cc2ccc3c(c2)[C@]2(C(=O)N3)[C@H](c3ccccc3OCCO)N3[C@H](c4ccccc4)[C@H](c4ccccc4)OC(=O)[C@H]3[C@@H]2C(=O)O)cc1 | inactive | inactive | inactive
Clc1ccc([C@H]2CC(C3CC3)=NN2c2ccccc2)cc1 | inactive | inactive | inactive
C[C@H]1CN([C@@H](C)CO)C(=O)c2cc(NC(=O)Nc3ccc(F)cc3)ccc2O[C@H]1CN(C)Cc1ccc(-c2ccccc2)cc1 | inactive | inactive | inactive
C[C@@H]1CN([C@H](C)CO)C(=O)c2cc(C#CC3(O)CCCC3)cnc2O[C@H]1CN(C)C(=O)Cc1cccnc1 | inactive | inactive | inactive
COc1ccc(S(=O)(=O)N(C)C[C@@H]2Oc3ccc(NS(=O)(=O)c4ccc(C)cc4)cc3CC(=O)N([C@@H](C)CO)C[C@@H]2C)cc1 | inactive | inactive | inactive
C[C@@H]1CCCCO[C@@H](CN(C)CC2CCCCC2)[C@H](C)CN([C@@H](C)CO)C(=O)c2cc(NC(=O)CCCN(C)C)ccc2O1 | inactive | inactive | inactive
COc1ccc(S(=O)(=O)Nc2ccc3c(c2)CC(=O)N([C@H](C)CO)C[C@H](C)[C@H](CN(C)S(C)(=O)=O)O3)cc1 | inactive | inactive | inactive
O=C1c2ccccc2[C@@]2(Cc3ccccc3N(CC(F)(F)F)C2=O)[C@H](c2ccc(CO)cc2)N1Cc1ccccc1Cl | inactive | inactive | inactive
C[C@H]1CN([C@@H](C)CO)C(=O)Cc2cc(NS(=O)(=O)c3cn(C)cn3)ccc2O[C@@H]1CN(C)S(=O)(=O)c1ccc(F)cc1 | inactive | inactive | inactive
C[C@H]1CN([C@@H](C)CO)C(=O)c2cc(NC(=O)c3ccncc3)ccc2O[C@H]1CN(C)S(=O)(=O)c1cn(C)cn1 | inactive | inactive | inactive
O=C1CCC23C=CC(=O)NCCCCNCCCNC(=O)C=Cc4ccc(c2c4)OC3C1 (stereo not drawn) | inactive | inactive | inactive
C[C@H](CO)N1C[C@H](C)[C@H](CN(C)C)OCCCC[C@H](C)Oc2ccc(NC(=O)Nc3ccc(C(F)(F)F)cc3)cc2C1=O | inactive | inactive | inactive

SMILES | cytotoxicity call (HSkMC) | cytotoxicity call (HepG2) | growth inhibition call (S. aureus RN4220)
C[C@H](CO)N1C[C@H](C)[C@H](CN(C)S(=O)(=O)c2cccs2)OCCCC[C@H](C)Oc2ccc(NS(C)(=O)=O)cc2C1=O | inactive | inactive | inactive
COc1ccc(COC[C@]23N=C4SCc5ccccc5CN4[C@H](c4ccccc4O2)[C@H]3COC(=O)NCCCCCC(=O)NO)cc1 | inactive | inactive | inactive
C[C@@H]1CN([C@@H](C)CO)C(=O)Cc2cc(NS(=O)(=O)c3cccs3)ccc2O[C@@H]1CN(C)S(=O)(=O)c1ccccc1 | inactive | inactive | inactive
C[C@@H]1CN([C@H](C)CO)C(=O)Cc2cc(NC(=O)Nc3ccccc3)ccc2O[C@@H]1CN(C)S(C)(=O)=O | inactive | inactive | inactive
CC(=O)OC1CC2CC(OC(C)=O)C3(C)C(CCC4(C)C(c5ccoc5)OC(OC(C)=O)C5OC543)C2(C)C(OC(C)=O)C1 (stereo not drawn) | inactive | inactive | inactive
COc1ncc(-c2nc(N3CCOCC3)nc3c(CN4CCC(C(C)(C)O)CC4)cc(F)cc23)cc1NS(C)(=O)=O | inactive | inactive | inactive
CC(C)NC(=O)N(C)C[C@H]1Oc2c(NC(=O)C3CCCCC3)cccc2C(=O)N([C@H](C)CO)C[C@H]1C | inactive | inactive | inactive
C[C@H](CO)N1C[C@H](C)[C@@H](CN(C)C(=O)Nc2ccc(C(F)(F)F)cc2)Oc2ccc(NC(=O)Cc3ccccc3)cc2CC1=O | inactive | inactive | inactive
CC(C)NC(=O)N(C)C[C@H]1Oc2ccc(NC(=O)CCN3CCOCC3)cc2CC(=O)N([C@@H](C)CO)C[C@@H]1C | inactive | inactive | inactive
C[C@@H]1CCCCO[C@H](CN(C)C(=O)Nc2ccc(C(F)(F)F)cc2)[C@H](C)CN([C@@H](C)CO)C(=O)c2cc(NS(=O)(=O)c3ccc(F)cc3)ccc2O1 | inactive | active | inactive
Cc1noc(C)c1NC(=O)N[C@@H]1C=C[C@H](CC(=O)N2CCN(C)CC2)O[C@H]1CO | inactive | inactive | inactive
C[C@@H]1CN([C@H](C)CO)C(=O)c2cccc(NC(=O)c3ccc(-c4nccs4)cc3)c2O[C@H]1CN(C)Cc1ccc(C(=O)O)cc1 | inactive | inactive | inactive
CN1CCN(C(=O)C[C@H]2CC[C@@H](NC(=O)c3ccc4c(c3)OCO4)[C@H](CO)O2)CC1 | inactive | inactive | inactive
CCCCOCCOCCOCc1cc2c(cc1CCC)OCO2 | inactive | inactive | inactive
Cc1ccc(S(=O)(=O)Nc2ccc3c(c2)C(=O)N([C@H](C)CO)C[C@H](C)[C@H](CN(C)C(=O)Nc2cccc4ccccc24)OCCCC[C@H](C)O3)cc1 | active | active | inactive
Cc1noc(C)c1S(=O)(=O)Nc1cccc2c1O[C@H](CN(C)Cc1ccc(Oc3ccccc3)cc1)[C@H](C)CN([C@H](C)CO)C2=O | inactive | inactive | inactive
CO[C@@H](CN(C)S(=O)(=O)c1ccc(F)cc1)[C@H](C)CN([C@H](C)CO)S(=O)(=O)c1cccc(Cl)c1 | inactive | inactive | inactive
C[C@H](CO)N1C[C@H](C)[C@@H](CN(C)S(=O)(=O)c2cn(C)cn2)Oc2ccc(NS(=O)(=O)c3ccc(Cl)cc3)cc2C1=O | inactive | inactive | inactive
